# Measurements: the supplement of paper PMC4604168 (melanoma cell lines)
# Some of the results follow. Single values are uncertain, as repeats are few or missing.
# Test system: WM1716
# Experiment: cell count relative to DMSO control; melanoma cells; higher = more viable cells
# Conditions: library dose: standard library concentration; 72 h
# 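Also: cells treated in 1,536-well plates, then fixed and DAPI-stained, with nuclei counted from automated high-throughput microscope images.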
row,SMILES,cell count [%]
1,"CNC(=O)c1cc(Oc2ccc(NC(=O)Nc3ccc(Cl)c(C(F)(F)F)c3)cc2)ccn1 [sorafenib] + N#Cc1c(O)c2c(-c3ccc(-c4ccccc4O)cc3)csc2[nH]c1=O [A769662] (first compound 2 µM, partner dose 10 µM)",75.9
2,"CN1CCN(c2ccc3nc(-c4c(N)c5c(F)cccc5[nH]c4=O)[nH]c3c2)CC1 [Dovitinib] + O=C1NC(=O)/C(=C/c2ccc(-c3ccc(F)cc3O)o2)S1 [AS252424] (first compound 0.5 µM, partner dose 5 µM)",89.8
3,"CNC(=O)c1cc(Oc2ccc(NC(=O)Nc3ccc(Cl)c(C(F)(F)F)c3)cc2)ccn1 [sorafenib] + O=C(O)C(=O)Nc1sc2c(c1C(=O)O)CCNC2 [TCS401] (first compound 2 µM, partner dose 8.33333 µM)",61
4,"C[C@@H](Oc1cc(-c2cnn(C3CCNCC3)c2)cnc1N)c1c(Cl)ccc(F)c1Cl [Crizotinib] + COc1cc2ncnc(Nc3ccc(Oc4ccccc4)cc3)c2cc1OC [SrcI1] (first compound 1 µM, partner dose 10 µM)",73.2
5,"CS(=O)(=O)CCNCc1ccc(-c2ccc3ncnc(Nc4ccc(OCc5cccc(F)c5)c(Cl)c4)c3c2)o1 [lapatinib] + Oc1nc(-c2ccc(C(F)(F)F)cc2)nc2c1CSCC2 [XAV939] (first compound 4 µM, partner dose 10 µM)",74.6
6,"C=CCNC1=C2C[C@@H](C)C[C@H](OC)[C@H](O)[C@@H](C)/C=C(\C)[C@H](OC(N)=O)[C@@H](OC)/C=C\C=C(/C)C(=O)NC(=CC1=O)C2=O [Tanespimycin] + O=C(O)C(=O)Nc1sc2c(c1C(=O)O)CCNC2 [TCS401] (first compound 0.01 µM, partner dose 8.33333 µM)",73.2
